Source: PubChem BioAssay AID2546 (National Center for Advancing Translational Sciences (NCATS), 2010)
The whole screen tested about 310,000 compounds, of which about 11,000 (3.5%) were called active. Inconclusive results, whose numbers are uncertain, are shown with a selection of clear calls. Calls follow the shape of the dose curve; as a rule, active = well fitted inhibition curve with a large enough effect; inconclusive = small, poorly fitted or top-dose-only effect, or effect the other way; inactive = flat fitted curve, though single readings scatter. No potency is given beside an inconclusive call; the fits are too rough.

Assay: VP16 counterscreen qHTS for inhibitors of ROR gamma transcriptional activity;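 also: Gal4-VP16 expression switched on by copper sulfate through the metallothionein promoter; nearly all actives have a fitted effect of over 50% in size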
Settings: Drosophila S2 Gal4-VP16 UAS-luciferase, luminescence, 20 h; activity, negative = inhibition: at 53.6 µM (top of the series)
% is scaled to controls: 0 for no effect and ±100 for the full control effect; potency is read from the fitted curve at half-maximal effect; tags tell the direction and shape of the fitted curve.

| Compound | Potency | activity, negative = inhibition |
| --- | --- | --- |
| CCn1c(CNC(=O)c2cc(OC)c(OC)c(OC)c2)cc2ccccc21 | inconclusive [inhibitor, single point] |  |
| CCC(C)NC(=O)/C(=C/c1ccco1)c1ccccc1 (stereo not given) | inconclusive [inhibitor, single point] |  |
| COCCCNC(=S)N/N=C/c1ccc(N(C)C)cc1Cl | active: 12.6 µM |  |
| Cc1ccccc1NC(=O)Cc1nc(CSc2nnc(-c3ccc4c(c3)OCO4)o2)cs1 | inconclusive [inhibitor, single point] |  |
| CC(C)c1ccccc1NC(=S)NN(Cc1ccccc1)c1ccccc1 | inconclusive [inhibitor, single point] |  |
| CCOC(=O)Cc1nnc(NCc2ccccc2)c2ccccc12 |  | inactive: -1.19% |
| CCOc1c(Br)cc(CNc2ccc(N3CCOCC3)cc2)cc1OC | inconclusive [inhibitor, single point] |  |
| COc1ccc(-n2c(=O)c(-c3cn(C)c4ccccc34)nc3cnc(N4CCOCC4)nc32)cc1 |  | inactive: -17.5% |
| NC(=O)c1c(-c2ccc(Cl)cc2Cl)csc1NC(=O)Cc1ccccc1 | active: 7.08 µM |  |
| Cc1ccc(-c2cc(C(=O)OCn3nnc4ccccc4c3=O)c3ccccc3n2)cc1 | inconclusive [activator, single point] |  |
| O=C(Nc1ccccc1)C1CCCN(C(=O)c2ccc(Cl)cc2)C1 (stereo not given) |  | inactive: -8.04% |
| N/C(=N\NC(=O)c1ccc(Cl)cc1)c1cnccn1 | inconclusive [inhibitor, single point] |  |
| Cc1cc(OCCCCN2C(=O)NC(C)(C)C2=O)ccc1[N+](=O)[O-] | inconclusive [inhibitor, single point] |  |
| O=C(NC1CC1)C1CCN(C2CCN(C(=O)CCOc3ccccc3)CC2)CC1 |  | inactive: -15.4% |
| Cc1cc(/C=N/NC(=O)c2cccc([N+](=O)[O-])c2)c(C)n1-c1ccc(Cl)cc1Cl | active: 6.31 µM |  |
| Cc1ccc(C(=O)Nc2cnc3ccccn3c2=O)cc1 | inconclusive [inhibitor, partial curve] |  |
| CCOC(=O)C1=C(N)Oc2cc(O)ccc2C1c1cccc([N+](=O)[O-])c1 (stereo not given) |  | inactive: -3.54% |
| O=C(CNC(=S)NC(=O)C1CCCCC1)c1ccccc1 | inconclusive [inhibitor, single point] |  |
| CN(C)c1ccc(CNCCC(Cc2ccccc2)c2ccco2)cc1 (stereo not given) | inconclusive [inhibitor, single point] |  |
| CC(C)Cn1cnc2sc3c(c2c1=N)CCCC3 | inconclusive [inhibitor, partial curve] |  |
